Source: PubChem BioAssay AID1963576 (National Center for Advancing Translational Sciences (NCATS), 2024)
Screen size: about 46,000 compounds; about 60 (0.1%) were called active. Not shown: some 3% with an inconclusive outcome. Calls follow the shape of the dose curve; as a rule, active = well fitted inhibition curve with a large enough effect; inconclusive = small, poorly fitted or top-dose-only effect; inactive = no such curve, though single readings can be large or run the other way. The list shows a part of the results.

assay: Primary qHTS assay for Inhibitors of ovarian cancer metastasis using an organotypic tumor microenvironment (TME) model.; also: nearly all actives have a fitted effect of over 65% in size;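 as to activity change, negative = inhibition: plate controls were DMSO wells for no effect and tomatine positive control wells for full effect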; conditions: SKOV3ip1-GFP adhesion/invasion on 3D omental model, fluorescence; series mostly up to 45.8 µM; activity change, negative = inhibition: at the top concentration
Procedure, shortened: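 A 3D layer of primary human omental fibroblasts, mesothelial cells, fibronectin and collagen I, grown 48 hr, received SKOV3ip1-GFP cells in serum-free medium plus compounds at 0.36-46 umol/L. After 2 hr RT and 16 hr 37 C, fixed adherent GFP cells were counted; normalized to DMSO and tomatine.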

Activity change, negative = inhibition, inactive:
COCCCNc1nc2c(c(=O)n(Cc3ccc(F)cc3)c(=O)n2C)n1C 11.7%
COc1ccc(CNC(=O)COCc2cc(-c3ccc4c(c3)OCO4)on2)cc1 9.77%
CCc1cccc(C)c1NC(=O)c1ccc2c(c1)CCN2S(=O)(=O)c1ccc(Cl)cc1 -5.93%
COc1cc(C(=O)NCC(c2ccco2)S(=O)(=O)c2cccs2)cc(OC)c1OC (stereo unspecified) -17.8%
CCS(=O)(=O)N1CCc2cc(C(=O)Nc3ccc(Br)cc3F)ccc21 7.32%
CC(=O)c1ccc(N2CCN(C(=O)c3cn(C)c(=O)c4c3c3ccccc3n4C)CC2)cc1 5.64%
Cc1ccc(-n2c(=O)c3c(c4cc(C)ccc4n3C)n(CC(=O)Nc3ccc(F)cc3)c2=O)cc1 -6.89%
Cc1c(Cl)cccc1Nc1nn2c(=O)c3ccccc3nc2s1 4.3%
COC(=O)c1cc2oc3ccccc3c2n1Cc1ccc(C)cc1 1.9%
COc1ccc(N2CCN(S(=O)(=O)c3ccc(CC(C)C)cc3)CC2)cc1 -3.89%
Cc1oc(-c2ccccc2F)nc1CS(=O)(=O)CC(=O)N1CCN(c2ccccc2)CC1 -7.42%
Cc1ccc([N+](=O)[O-])cc1NC(=O)CN(c1ccccc1)S(=O)(=O)N(C)C 2.3%
CCOC(=O)c1cccc(NC(=O)C(C)n2nc(C)c3c(C)n(-c4ccccc4)nc3c2=O)c1 (stereo unspecified) -4.09%
COc1ccccc1CNC(=O)CC(c1ccc(F)cc1)N1Cc2ccccc2C1=O (stereo unspecified) -7.11%
Cc1ccccc1-c1noc(-c2ccc(NCC3CCCO3)c([N+](=O)[O-])c2)n1 (stereo unspecified) -1.61%
CCOc1ccc(NC(=O)Cn2c(=O)n(CCCC(=O)NCCc3ccc(Cl)cc3)c(=O)c3ccccc32)cc1 7.47%
COc1ccc(CNC(=O)c2cc3c(=O)n(Cc4ccco4)ccc3nc2C)cc1 2.54%
COc1cccc(NC(=O)CCNS(=O)(=O)c2ccc3c(c2)oc(=O)n3C)c1 2%
COc1cc2c(cc1OC)n(Cc1cccc(C(F)(F)F)c1)c(=O)n1nc(-c3ccccc3)nc21 -6.01%
Cc1cc(C)c(NC(=O)CN(C)S(=O)(=O)c2ccc3c(c2)CCC(=O)N3)c(C)c1 -7.15%
CC(=O)c1cccc(NC(=O)c2nc(-c3ccccc3)n(-c3ccccc3)n2)c1 -16.7%
CCn1cc(C(=O)N2CCN(c3ccc(C)cc3)C(C)C2)c(=O)c2cc(S(=O)(=O)N3CCCC3)ccc21 (stereo unspecified) -2.43%
CCC(C)NC(=O)C1CCN(S(=O)(=O)c2ccc3c(c2)CCCN3C(C)=O)CC1 (stereo unspecified) -20.1%
CCc1ccccc1NC(=O)C(=O)NCCCN1CCOCC1 -10%
COc1cc2c(cc1OC)C(COc1cccc(C(F)(F)F)c1)N(C(=O)c1ccc(S(=O)(=O)N3CCCC3)cc1)CC2 (stereo unspecified) -7.29%
O=C(CSCn1nnc2c(=O)[nH]c(Cc3ccc(F)cc3)nc21)Nc1cccc(C(F)(F)F)c1 21.7%
CCOc1ccc(N(C)S(=O)(=O)c2ccc3c(c2)CCCN3C(C)=O)cc1 -5.51%
CC(=O)Nc1ccc(NC(=O)CCCn2nc(C)c3sc4ccccc4c3c2=O)cc1 -14.6%
CCOc1ccc(NS(=O)(=O)c2cc3c(cc2Cl)NC(=O)CO3)cc1 9.52%
O=C(C[C@@H]1CC=CCCC(=O)O[C@H](c2ccccc2)CNC1=O)NCc1ccc(Cl)cc1 41.8%
O=C(Cn1c(=O)c2cccn2c2cccnc21)NCc1cccc(F)c1 3.35%
CCOc1ccc(NC(=O)c2ccc3[nH]c(C)c(C)c3c2)cc1 0.759%
Cc1nc2ccc(S(=O)(=O)N(CC(=O)Nc3ccc(F)cc3F)Cc3ccccc3)cc2s1 2.62%
CNC(=O)CCCN1C(=O)c2cccnc2Sc2ccccc21 2.4%
Cc1ccsc1CN1CCc2nc(Nc3ccccc3)ncc2C1 -8.7%
CCCCC(=O)OC1=C(C(=O)c2ccccc2)N(CCC)S(=O)(=O)c2ccccc21 -24.8%
COc1ccccc1NC(=O)Cn1c(=O)n(Cc2ccccc2)c(=O)c2c1c1cc(C)ccc1n2C 15%
O=C(Cn1ccc2cc(S(=O)(=O)N3CCCCC3)ccc21)NCCc1ccccc1Cl -4.12%
CCCCN(C)C(=O)c1cn(C)c2ccc(S(=O)(=O)N3CCC(C)CC3)cc2c1=O 8.49%
CCc1ccc(NC(=O)CSC2=Nc3ccccc3C3=NC(CCC(=O)NCc4ccccc4)C(=O)N23)cc1 (stereo unspecified) 8.43%
Cc1ccccc1NC(=O)Cn1cc(C(=O)c2cccs2)c2ccccc21 -15.9%
O=c1[nH]cnc2[nH]ncc12 8.12%
CC1CCN(S(=O)(=O)c2ccc3c(c2)CCN3)CC1 -1.13%
CC1=C(C(=O)Nc2cccc(Cl)c2C)C2(CCCCCC2)OC1=O -27.6%
COc1ccccc1C(=O)Nc1ccccc1OCc1cc(=O)n2ccccc2n1 -18.3%
Cc1ccc2oc(C(=O)Nc3cccc(Cl)c3)cc(=O)c2c1 1.95%
O=C(Cc1ccccc1)Nc1sc2c(c1C(=O)Nc1ccc(Br)cc1)CCC2 -5.38%
Cc1ccc(CCNC(=O)CS(=O)Cc2nc(-c3ccccc3Cl)oc2C)cc1 (stereo unspecified) 2.5%
O=C(NCCc1ccccc1)c1nc(-c2ccc(Cl)cc2)n2c1CCCCC2 0.402%
COc1cccc(N2CC(NC(=O)c3ccc(S(=O)(=O)N4CCOCC4)cc3)CC2=O)c1 (stereo unspecified) 1.74%
O=C(Nc1ccc(F)cc1)c1csc2c1CCCCC2 15.6%
Cc1ccccc1NC(=O)CSc1nc2nccnc2c(=O)n1CCc1c[nH]c2ccccc12 -15.1%
COc1ccc(S(=O)(=O)c2cnc3ccc(Cl)cc3c2N2CCCCC2C)cc1 (stereo unspecified) -4.66%
Cc1cc(C)cc(OCC(=O)Nc2c(C)ccc3nsnc23)c1 0.396%
CC1CCCc2sc3nc(SCC(=O)c4ccc(Br)cc4)nc(N)c3c21 (stereo unspecified) 2.25%
Cc1cccc(NC(=O)CSc2nccn2Cc2ccc(F)cc2)c1C 1.23%
Cc1cccc(N2CCN(C(=O)Cn3nc(C)n4cccc4c3=O)CC2C)c1 (stereo unspecified) 3.4%
CCOc1ccc(N(CC)S(=O)(=O)c2cc(Br)cc3c2N(C(C)=O)C(C)C3)cc1 (stereo unspecified) 18.5%
COc1ccc(NC(=O)CSc2nc(-c3ccco3)cc(C(F)(F)F)n2)cc1OC -11%
COc1ccccc1NC(=O)CSC1=Nc2ccccc2C2=NC(CC(=O)NCc3ccco3)C(=O)N12 (stereo unspecified) -7.61%
CC(=O)c1cccc(NC(=O)c2oc3c(c2C)-c2nn(Cc4ccc(Cl)cc4)cc2CC3)c1 -18%
COc1ccc(S(=O)(=O)N2CCCN(CC(=O)Nc3ccc(NC(C)=O)cc3)CC2)cc1 2.01%
COCc1nc2ccccc2n1CCOc1cccc(C)c1 -10.7%
O=C(CN1N=C(c2ccc(Cl)cc2)CCC1=O)NCCc1ccc(Cl)cc1 -1.93%
Cc1cc(O)c2c(c1)C(=O)c1cc(O)cc(O)c1C2=O -13.1%
CCOc1ccccc1CN1CCN(S(=O)(=O)c2ccccc2)CC1 9.72%
Cc1nc2c(C(=O)NCCCN(CC(C)C)CC(C)C)cnn2c(C)c1Cc1c(F)cccc1Cl 4.76%
CCCc1nn2c(=O)cc(COC(=O)c3ccccc3NC(=O)COc3ccccc3F)nc2s1 3.29%
CCOc1ccc(CNC(=O)C2Cc3ccccc3N2C(=O)CC)cc1OC (stereo unspecified) -2.3%
COc1ccc(NC(=O)c2oc3ccc(S(=O)(=O)N4CCCCC4)cc3c2C)cc1 0.192%
COc1ccc(OC)c(CNC(=O)c2ccc(Sc3ccc(C)cc3)c(N)c2)c1 -55.8%
Cc1ccc(NC(=O)CN2C(=O)CCc3cc(S(=O)(=O)N4CCOCC4)ccc32)cc1F 43.4%
CCc1ccc(-n2nc(C)c3c(C)cc(=O)n(Cc4nc(-c5ccccc5)oc4C)c32)cc1 1.97%

outcome, inactive:
CCOC(=O)c1cc2c(=O)n3ccccc3nc2n(Cc2ccco2)c1=NC(=O)c1ccccc1Br
O=C(NCC(c1ccco1)S(=O)(=O)c1cccs1)c1ccccc1 (stereo unspecified)
COC(=O)c1cc(NC(=O)c2cc3c(-c4ccccc4F)nn(C)c3s2)cc(C(=O)OC)c1
COc1ccc(OC)c(S(=O)(=O)NCC(c2ccc(N(C)C)cc2)N2CCOCC2)c1 (stereo unspecified)
COc1ccc(-c2[nH]c(-c3ccc(O)cc3)nc2-c2ccccc2)cc1
Cc1ccc(Cn2c(SCC(=O)NCc3ccccc3)nc3ccsc3c2=O)cc1
Cc1cccc(N2CCN(S(=O)(=O)c3ccc(-c4cnc(C5CC5)o4)cc3)CC2)c1C
O=C1CCCc2cc(S(=O)(=O)N3CCCC(C(=O)NCc4ccccc4)C3)ccc2N1 (stereo unspecified)
Cc1cc(C)c(NC(=O)CCS(=O)(=O)c2cc3c(cc2Cl)NC(=O)CO3)c(C)c1
O=C(Cn1c(SCc2ccccc2F)nc2ccncc21)Nc1ccccc1C(F)(F)F
Cc1ccc(S(=O)(=O)Nc2cccc(-c3cn4cccc(C)c4n3)c2)c(C)c1
CCOc1cc(C(=O)NCCc2sc(-c3ccc(F)cc3)nc2C)cc(OCC)c1OCC
CC(NC(=O)CSc1n[nH]c(-c2ccccc2Cl)n1)c1nc2ccccc2[nH]1 (stereo unspecified)
O=C(c1cnn(-c2ccc(F)cc2)c1-n1cccc1)N1CCN(c2ccc(F)cc2)CC1
O=S(=O)(NCCS(=O)(=O)N1CCN(c2ccccc2)CC1)c1ccc(Br)cc1
COc1ccccc1Nc1sc(C(=O)c2ccc(C)cc2C)c(N)c1S(=O)(=O)c1ccccc1
CCc1ccc(S(=O)(=O)c2nnn3c2nc(Nc2cc(OC)ccc2OC)c2sccc23)cc1
COc1ccc(CNc2nc3c(-c4ccccc4)nnn3c3ccccc23)cc1
CCCCN(C)CCCNC(=O)Cn1ncc2c3ccccc3n(Cc3ccccc3)c2c1=O
CN(Cc1ccccc1)S(=O)(=O)c1nnc(NC(=O)c2cccc(Cl)c2)s1
Cc1ccc(C(=O)Nc2cc3c(cc2C)n(C)c(=O)c(=O)n3C)cc1
CCCOC(=O)c1c(NC(=O)c2nc3ncccn3n2)sc(C(N)=O)c1C
Cc1cccc(CNC(=O)CCn2c(=O)c3cccn3c3ccc(F)cc32)c1
